Data: the supplement of paper PMC10126150
Sequences with one replicate were seen in a single cluster, so their values are uncertain.

Tested on: ATP
Assay: switch fluorescence ratio, 500 uM ATP over buffer (Cy3 cluster intensity, sum of 5 cycles each) (fold (ratio)); higher = stronger signal-on switching upon ATP binding; sequences stand for … in TCGTCGGCAGCGTCAGATGTGTATAAGAGACAGTTTTTTTTTTTTTTTTTTTTTTTTT…TC
Conditions: aptamer strand: ATP DNA aptamer (quencher-CACCTGGGGGAGTATTGCGGAGGAAGG + anchor), 100 nM annealed; ATP concentration: 500 uM; one replicate
Procedure, shortened: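 Exposure to 500 uM ATP lasted 15 min at 22 °C before imaging, and a selection-buffer image was taken beforehand, for Cy3-labelled switching-strand clusters on a modified Illumina MiSeq flow-cell annealed to 100 nM quencher-labelled ATP aptamer. Five buffer/ATP cycles were run with NaOH stripping and re-annealing between them. The fluorescence ratio per cluster is summed target-cycle over summed buffer-cycle Cy3 intensity, averaged per switch-domain sequence. Clusters outside 100-1000 RFU were excluded.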

Sequence | switch fluorescence ratio
TCGGAGTAGG | 1.03
TTCGCTGAT | 2.81
CATGATAGAG | 0.986
CGCTCGTAGG | 0.983
AGTGAGACTA | 0.989
CTGGTAGGTG | 1.08
CCAAGGCCGT | 1.02
TTACGTTGCA | 0.993
TTTTAGATTA | 0.989
CCTTAAGGTT | 0.992
CGCCCCAACG | 1.06
CAGATTGTGA | 1
TATGTAGCTC | 1.13
AACCATACGC | 1.35
CATTCAAAAC | 1.02
GCTCCGGGAG | 1.07
TGGCCCAGCT | 0.979
CGATTGATCT | 0.978
ACGCCTTTGT | 1.02
TGATGTAAAG | 0.972
ATAAATGGTT | 1.01
CTTGTACGAG | 1.05
CTAATTTTAG | 0.988
ACAAGGAGT | 0.98
CAAGCTCTAT | 0.961
ATTCAGATGG | 0.941

Sequence | switch fluorescence ratio
CCGTGAACAT | 1.04
TGTGTAATTC | 1.01
AGGGGACTCG | 0.958
GCAGCTGCGG | 0.992
CTATTTGATG | 0.998
CAATAGACGA | 1.02
GATCGTAATC | 2.01
AGGGGCTTA | 0.987
TAAGTTCATA | 1.05
TGCTACACCA | 1.01
ACTTGGGCTC | 0.984
TAATGGTAGG | 0.985
CTCGGGAAAC | 1.13
AGGTATCAT | 1.01
TTTAAAAGTG | 1.02
TATGGGCAGA | 1.02
TGTCTCATTT | 0.971
GTGGGCTTTT | 0.944
TATTGGTTGG | 1.02
AGGAATTTAA | 1.02
GACGTGATTG | 0.994
GCTATGTTGA | 1
CGGGTCACTG | 1
AACCGCTCCA | 1.2
TTGGTTCACG | 0.963
TGAAAAGGAA | 0.995

Sequence | switch fluorescence ratio
ACAATCAGGC | 0.965
GACTAGCGTG | 0.98
GGTGTCACCT | 0.986
TCGAGGATGC | 1.06
GATTCATTTC | 0.976
ATCTCGAGAC | 1.01
AGGCAGACAG | 1.01
AAACACTTGA | 0.995
TTCTTACCTT | 1.07
GTAGGGGCTT | 0.984
GGACTAACAA | 1.07
GGATTTGAGC | 0.999
CGTCGTTTG | 1.01
AAGTGTTTC | 1.04
ATGTATGGTG | 0.987
TAGTATGCTC | 0.965
CTCTCGAGAG | 0.963
TCCACGGTGC | 2.16
GGACAGTTTT | 1
CAATGTCTGA | 0.99
AGAGTGATCA | 1.02
CATCAAACGC | 1.11
TAGCGTGGGG | 0.997
ACATAGGACC | 1.04
AATATTGTAA | 0.99
GGGGCCCAGT | 0.988

Sequence | switch fluorescence ratio
CTACAGTGCT | 1.03
TGTTACAGTG | 0.989
ACAGTTATGA | 0.998
GTAATTATC | 1.04
GACCGTTGGC | 0.996
AAGTTTAGA | 1.02
TTAGCTGGCT | 1.04
AACCAGGGG | 1.31
GGAAATGGTC | 0.93
GAAGTGATGA | 1.07
TGCTGTGGTG | 1.02
TGAAACATCT | 1.01
GCGGTTTACG | 1
GTGGGTAATC | 0.956
CTCATCTGTT | 1.06
GTTTGAGAAG | 1.01
ATCCTTGCCC | 1.15
TTATTCACGT | 1.01
AACGCAGG | 0.999
GATGATTTAA | 0.958
CGGTATACAG | 0.979
TAAGAACGGT | 0.965
TTGTATTCTC | 0.977
CAGCGTTAAA | 0.978
CATTTTTGA | 0.996
TGGTGCACAT | 1.02

Sequence | switch fluorescence ratio
CCTGACATT | 1.01
ATGAGGAGCA | 0.963
ACACGACC | 1.36
CGGCGACTGG | 0.963
CAGTAACCCT | 1.09
GAAGTCCTCG | 1.02
AAGGCTCTGG | 0.985
AAGGATGGTT | 1.03
TTTCCCATGT | 1.08
TTGAGTGCGA | 0.948
CCCATATCGG | 1.02
TTGATGGT | 0.978
TTGGGTAACG | 1.01
TGGCGTAGTG | 1.02
TGGAGTATGG | 1.06
GCATGAGTCA | 1.01
CTTACCTTGT | 0.969
ATTTAATCGT | 1.06
ATTGACAACT | 1.02
AACCCGTAGG | 1.07
GAAGACCGGA | 0.987
GCTTCAATTG | 1.03
TTACCATGCC | 1.1
AAGTCGAGGG | 1.03
TTTTCAGCCA | 1.05
TGCTCATTAC | 1.28

Sequence | switch fluorescence ratio
GATAAATCTG | 1
CACGAAGTCT | 0.942
AGAATGCAGG | 0.953
CACTTATTGT | 0.979
CGCATCGG | 1.1
ATTATAGAAG | 0.981
TATAGACAAT | 1.02
ATTCATTTAA | 0.914
TTCCTTTCTG | 1.01
CATTCTGGAA | 1.04
CGCCGAGCTC | 1.26
GTATCTGTCT | 1.01
GCCCACCACG | 1.03
AAAGCAGGGT | 1.4
GCCAGCGGTA | 0.969
AGGCGTTGA | 1.01
GCTCATAGGG | 0.982
TGTGGCACGC | 1.05
CTGGCCAAAA | 1.03
TGGAGCTCAG | 0.972
TGAAGGGAG | 0.991
TAGCGACAAT | 1.08
CGTCCCCGAC | 1.07
ATAGTTCTGT | 1.02
